# Results: PubChem BioAssay AID488969 (Vanderbilt High Throughput Screening Facility, 2010)
# The full ranking holds about 110,000 compounds; the median of “z-score” is about -0.1, and the highest 2% start at about 2. The list shows a part of the results.
# Biological target: Metabotropic glutamate receptor 8 (Rattus norvegicus) (UniProt P70579)
# Experiment: mGluR8 Gi/Go-coupled signaling modulation – cell-based, rat, thallium flux, HTS, primary screen (AID 488969)
# Details: HEK293 rat mGluR8, GIRK (G protein-gated inwardly rectifying potassium channel) thallium flux, FluoZin2; at 10 µM; stronger effect = higher value; submaximal glutamate (EC20) added with thallium
# Chain of UniProt P70579 (P70579 whole entry, looked up): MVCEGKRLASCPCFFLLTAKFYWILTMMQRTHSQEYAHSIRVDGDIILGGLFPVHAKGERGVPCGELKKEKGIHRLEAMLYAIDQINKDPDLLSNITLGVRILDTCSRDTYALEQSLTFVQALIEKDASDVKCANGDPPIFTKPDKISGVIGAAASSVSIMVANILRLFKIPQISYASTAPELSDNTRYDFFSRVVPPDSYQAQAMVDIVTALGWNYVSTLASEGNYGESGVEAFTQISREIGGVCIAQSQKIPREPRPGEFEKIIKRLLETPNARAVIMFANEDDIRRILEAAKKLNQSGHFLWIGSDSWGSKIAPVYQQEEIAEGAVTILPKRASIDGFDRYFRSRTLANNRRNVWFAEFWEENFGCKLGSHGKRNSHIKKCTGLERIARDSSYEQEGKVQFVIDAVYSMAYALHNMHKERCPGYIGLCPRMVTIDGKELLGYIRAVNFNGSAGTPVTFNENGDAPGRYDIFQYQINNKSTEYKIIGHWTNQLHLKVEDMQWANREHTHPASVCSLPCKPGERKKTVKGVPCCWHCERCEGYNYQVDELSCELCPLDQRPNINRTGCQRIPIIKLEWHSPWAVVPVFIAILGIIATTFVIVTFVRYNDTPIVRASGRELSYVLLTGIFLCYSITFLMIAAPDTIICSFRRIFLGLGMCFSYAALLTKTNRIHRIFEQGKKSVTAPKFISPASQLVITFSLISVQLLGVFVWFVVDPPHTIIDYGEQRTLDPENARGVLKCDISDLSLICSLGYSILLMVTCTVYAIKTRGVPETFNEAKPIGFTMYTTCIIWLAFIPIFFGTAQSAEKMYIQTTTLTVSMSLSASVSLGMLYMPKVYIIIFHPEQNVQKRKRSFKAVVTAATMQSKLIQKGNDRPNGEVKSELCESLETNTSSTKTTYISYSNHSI
row,Structure (SMILES),z-score
1,CCOC(=O)C(=CNc1ccccc1C)C(=O)OCC,-1.41
2,Nc1c(Cl)cc(NC(=O)c2ccccc2C(=O)O)cc1Br,0.0673
3,Cc1ccccc1NC(=S)NCc1cccn1C,-0.488
4,CCOc1ccc(Oc2c(/C=N/NC(N)=O)c(C)nn2-c2ccccc2)cc1,0.235
5,COc1ccc(O)c(C(=O)c2cnc3onc(C(C)C)c3c2)c1,0.111
6,O=C(Oc1cccc([N+](=O)[O-])c1)c1cc(-c2ccccc2)nc2ccccc12,0.17
7,O=C(c1ccc(Nc2cccc(C(F)(F)F)c2)nc1)N1CCCC1,-0.0582
8,CCOc1ccc(NC(=O)/C=C/c2ccc(OC)cc2)c([N+](=O)[O-])c1,-0.515
9,Cc1cc(NC(=O)c2ccc(Br)c(S(=O)(=O)N3CCCC3)c2)no1,-0.32
10,CC1c2c([nH]c3ccccc23)CCC1C(=O)O (centres undefined),0.673
11,O=C(COC(=O)C1Cc2ccccc2CN1C(=O)c1ccccc1Cl)Nc1ccc(N2CCOCC2)cc1 (centres undefined),-1.35
12,COc1ccc(-c2nnn(CCc3nn[nH]n3)n2)cc1OC,0.508
13,O=C(CSc1nc2c(cnn2-c2ccc(F)cc2)c(=O)[nH]1)N1CCCCC1,0.533
14,COc1ccc(Cl)cc1NC(=O)CN1CCC(n2nnc3cc(C)ccc32)CC1,-0.93
15,CC(C)Cc1nc2oc3c(Cl)ncnc3c2c2c1CCC2,-0.937
16,CC(C)OC(=O)CC(=O)CSc1nc2c(cc1C#N)CCC2,-0.321
17,O=C(N/N=C/c1ccc(OCC(=O)N2CCCCC2)cc1)c1ccccc1,-0.172
18,CCNC(=S)NCCN1CCCCC1,-0.0769
19,O=C(NCCN1CCCC1=O)Nc1ccccc1,-0.197
20,CNc1nc(N/N=C/c2ccc([N+](=O)[O-])cc2)nc(Nc2ccccc2)n1,-0.339
21,CCC(C)NS(=O)(=O)c1ccc(OCC(=O)NCc2ccco2)cc1 (centres undefined),-0.116
22,CCOC(=O)c1[nH]c(C)c(C(=O)Nc2cc(OC)ccc2OC)c1C,-0.101
23,CC(C)c1cc(C(=O)Nc2cccc(Cl)c2)no1,0.246

row,Structure (SMILES),z-score
1,C=CCn1c(-c2cccc(OC)c2)nc2nc3ccccc3nc21,-0.795
2,Cc1cccc(C)c1NC(=O)C1(NC(=O)C2CCCN2C(=O)OC(C)(C)C)CCCCC1 (centres undefined),-0.0399
3,O=S(=O)(c1cccc(C(F)(F)F)c1)N1CCN(c2ccccc2)CC1,-0.199
4,COC(=O)c1cc(=O)n(CCc2ccc(OC)c(OC)c2)c(=Nc2ccc(F)c(Cl)c2)s1,0.363
5,O=[N+]([O-])c1cc(/C=N/O)ccc1SCc1ccccc1,-0.179
6,COc1ccc(CNC(=O)/C=C/c2cc([N+](=O)[O-])ccc2OC(F)F)cc1OC,0.482
7,COc1cc(C(=O)NC(=S)Nc2ccc(Cl)c(C(=O)O)c2)cc(OC)c1OC,-0.211
8,CCCn1c(=N)n(CC(=O)O)c2ccccc21,0.834
9,COc1cc(-c2nc3cnccc3n2C)cc(OC)c1OC,-0.268
10,CN(C)Cc1cnc2ccc(Cl)cn12,0.0546
11,COc1cccc(OCCn2cc(C(=O)c3ccco3)c3ccccc32)c1,-0.473
12,COC(=O)Cc1ccc(NC(=S)N2CCN(c3ccc(F)cc3)CC2)cc1,-0.586
13,Cc1ccc(NC(=S)NN2CCN(C)CC2)c(C)c1,-0.222
14,O=C(O)c1cccnc1SC1CC(=O)N(Cc2ccccc2)C1=O (centres undefined),-0.166
15,CC(=O)N1CCc2cc(S(=O)(=O)NC(Cc3ccccc3)C(=O)Nc3cc(C)ccn3)ccc21 (centres undefined),-0.845
16,Cc1cc2nc(C)n(CCCNC(=O)Nc3ccc(F)cc3)c2cc1C,-0.19
17,CCOC(=O)c1c(NC(=S)NC(=O)c2ccco2)sc2c1CCCC2,0.218
18,CCN(C(=O)Cc1c(C(=O)O)[nH]c2ccccc12)c1cc(OC)ccc1OC,-0.314
19,CC(=O)Nc1ccc(S(=O)(=O)Nc2nc3ccccc3nc2N2CCCCCC2)cc1,-0.103
20,CC(Cc1cccs1)NC(=S)Nc1ccccc1 (centres undefined),-0.124
21,CCCCC1CCC(C(=O)Nc2ccccc2)CC1 (centres undefined),-0.237
22,O=C(O)C1CC(=O)N(Cc2ccccc2)C1 (centres undefined),0.17
23,O=C(CCN1C(=O)C2C3C=CC(C3)C2C1=O)Nc1c(F)cc(F)cc1Br (centres undefined),-0.082

row,Structure (SMILES),z-score
1,CCOc1ccc(S(=O)(=O)n2c(C)nc3ccccc32)cc1,-0.639
2,COC(=O)C(Cc1c[nH]c2ccccc12)NC(=O)c1cc(-c2ccc(OC)c(OC)c2)oc1C (centres undefined),-0.0544
3,COc1cc(NS(=O)(=O)c2ccc(NC(C)=O)cc2)nc(OC)n1,0.152
4,S=c1[nH]nc(Cc2cccs2)n1-c1cccc2ccccc12,0.0708
5,COc1ccccc1NC(=S)NNC(=O)c1ccccc1Br,-0.0206
6,O=C(Nc1cccc(C(F)(F)F)c1)c1cnc2n(c1=O)CCS2,0.0706
7,Cc1ccc(-c2cc(C(=O)Nc3ccc(S(=O)(=O)Nc4cc(C)on4)cc3)c3ccccc3n2)c(C)c1,-0.0128
8,COc1ccc(N/N=C2/CCCCC2=O)cc1,0.302
9,CCCCCCC1CC(C)(C(=O)CNc2nncs2)OC1=O (centres undefined),-0.244
10,O=C(CC12CC3CC(CC(C3)C1)C2)N1CCOCC1,0.275
11,Cc1ccc(N=C2N=C(N)c3ccccc32)c(C)c1,-0.146
12,Cc1c(N)c(C(C)(C)C)cc(C(C)(C)C)c1[N+](=O)[O-],-0.325
13,NC(N)=N/N=C/c1ccc(OCc2ccccc2Cl)cc1,0.258
14,Cc1ccc(SCCNC(=O)CN(c2ccc3c(c2)OCO3)S(C)(=O)=O)cc1,1.96
15,Cc1ccn2c(C(=O)N/N=C\c3ccccc3[N+](=O)[O-])c(C)nc2c1,-0.0577
16,C=CCn1c(COc2cccc(C)c2)nnc1SCC(=O)c1c[nH]c2c(CC)cccc12,0.643
17,NC(=O)c1ccsc1NC(=O)CSc1nc2ccccc2c(=O)n1CCCO,-0.109
18,Cc1ccc(C(=O)c2ccccc2C(=O)OCC(=O)Nc2cccc([N+](=O)[O-])c2)cc1,-0.147
19,C/C(=N\OC(=O)c1ccc(OC(C)C)cc1)c1ccc(C)c(C)c1,-0.319
20,COC(=O)c1sc2ccccc2c1-n1cccc1C(=O)C(=O)Nc1ccccc1,0.309
21,COc1ccc(C2C(C#N)=C(N)Nc3onc(C(C)(C)C)c32)c(OC)c1 (centres undefined),-0.0893
22,CNC(=O)c1[nH]cnc1C(=O)Nc1ccc(C)cc1,1.33
23,O=C1CC(SCCO)C(=O)N1c1ccc(Oc2ccccc2)cc1 (centres undefined),-0.0704

row,Structure (SMILES),z-score
1,CCCN(CC1COc2ccccc2O1)C(=S)Nc1ccc(C)cc1 (centres undefined),-0.0374
2,CC(Sc1nnc(Cc2ccc([N+](=O)[O-])cc2)o1)C(N)=O (centres undefined),-0.0336
3,CNC(=O)c1nn(-c2ccccc2)ccc1=O,-0.00144
4,CCn1c(CSc2nc(C)cs2)nc2cc(S(=O)(=O)N(C)C)ccc21,0.284
5,c1ccc2c(-c3c[nH]c4ccccc34)c3ccccc3nc2c1,0.574
6,COCC(C)Nc1ncnc2c1cnn2-c1ccc(Cl)cc1 (centres undefined),-0.168
7,O=C(NC(Nc1nc2ccccc2s1)(C(F)(F)F)C(F)(F)F)c1ccccc1,-0.124
8,CN1/C(=C/C2CC(=O)NC2=O)C(C)(C)c2ccccc21 (centres undefined),0.257
9,S=C(Nc1ccc(Br)cc1)NC1CCCC1,0.487
10,Cc1ccccc1OCCn1c(=O)sc2ccccc21,0.116
11,O=c1oc2cc(OCc3ccc([N+](=O)[O-])cc3)ccc2c2c1CCCC2,0.0141
12,CC1=Nc2ccccc2/C1=C\c1nc(-c2ccccc2)oc1O,-0.305
13,CC(=O)OCC1OC(OC(C)=O)C(NC(=O)c2cccnc2)C(OC(C)=O)C1OC(C)=O (centres undefined),-0.202
14,O=C(Cn1cnc2c(oc3ccccc32)c1=O)N1CCCc2ccccc21,-0.0875
15,COc1ccccc1CP(=O)(c1ccccc1)c1ccccc1,-0.364
16,COC(=O)c1nnn(CC(=O)Nc2cccc(Cl)c2)c1C(=O)OC,-0.1
17,CCCC(c1nnnn1CS(=O)(=O)c1ccc(C)cc1)N1CCN(c2ccc(F)cc2)CC1 (centres undefined),-0.0181
18,CC1CCCN(S(=O)(=O)Cc2ccc(Cl)cc2)C1 (centres undefined),-0.884
19,COc1ccccc1N(CN1CCCC1=O)C(=O)c1c(F)cccc1Cl,0.241
20,CCOC(=O)c1snc2c(=O)[nH]cnc12,-0.496
21,CCN(CC)c1ccc(NC(=O)c2c(OC)cccc2OC)c(C)c1,-0.524
22,COc1cccc(NC(=O)CSCC(=O)Nc2ccccc2)c1,-0.472
23,CCCCOc1ccccc1C(=O)NCCCC(=O)O,-0.417

row,Structure (SMILES),z-score
1,O=C(CCNS(=O)(=O)c1cccs1)NCc1cccs1,-0.157
2,S=c1nccc(-c2cc(Cl)sc2Cl)[nH]1,1.26
3,COC(=O)CCS(=O)(=O)c1ccc(Cl)cc1,0.957
4,CCOc1ccccc1C(=O)Nc1cnn(Cc2ccc(F)cc2)c1,-0.749
5,CC1CCc2cccc3c2N1c1cc(C#N)c(C#N)cc1O3 (centres undefined),-2.2
6,O=C(N/N=C/c1cccs1)c1cc(-c2cccc3ccccc23)n[nH]1,0.882
7,Cc1ccc(C(=O)N2CC(C)SC2=Nc2cccc(S(=O)(=O)N(C)C)c2)cc1 (centres undefined),-0.203
8,Cc1cccn2c(=O)c(C=Nc3ccc(Cl)cc3)c(NCCO)nc12,-0.397
9,COc1ccc(N2CCN(C(=O)C3(C)CC3(Cl)Cl)CC2)cc1 (centres undefined),-0.166
10,C/C(=N\N=C(/N)SC1CC(=O)N(c2ccc(Cl)cc2)C1=O)c1cccs1 (centres undefined),0.416
11,Cc1ccc(-c2cc(C(=O)N3CCCC3)no2)cc1,-0.457
12,Cc1noc(C)c1S(=O)(=O)N1CCC(Cc2ccccc2)CC1,2.68
13,Cc1nc2c(c3c1[nH]c1ccccc13)C(=O)CC(C)(C)C2,-0.219
14,Cc1cc(C)n(C(=O)C23CC4CC(CC(C4)C2)C3)n1,0.557
15,C=C(C)Cn1c(CCCNC(=O)CC)nc2ccccc21,0.186
16,COc1cc(=O)n2c(n1)SCCC2,-0.228
17,c1cncc(-c2nnc(C3CCCCC3)o2)c1,-0.866
18,O=C(O)CN=C1NC2(CCCC2)Cc2ccccc21,-0.31
19,Cc1ccc(OCCn2c(=O)cnc3ccccc32)cc1,-0.0588
20,Cc1ccc(S(=O)(=O)N2CCOCC2)cc1C(=O)Nc1ccc2c(c1)CCC2,-0.205
21,Cc1cccc(-c2noc(-c3ccccc3C(=O)NCC3CCCO3)n2)c1 (centres undefined),-0.356
22,CC1=CC2CC1C1C(=O)N(c3ccc(S(=O)(=O)Nc4nc(C)cc(C)n4)cc3)C(=O)C21 (centres undefined),0.305
